This data set concerns the molecule itself. The experiment in a line: cryo-EM structure.

B1: Mycobacterium tuberculosis ClpB, full-length (enzyme)
chain: not shown
By stoichiometry N is commonly meant the number of molecules, sites or subunits per partner or assembly. Regarding B1, the “stoichiometry N” value is 6.
